In PubChem BioAssay AID686978 (National Center for Advancing Translational Sciences (NCATS), 2013):
Values joined by “and” are separate entries in the source; they are usually repeats but may differ in a detail not shown here. Equal entries are not always repeated. Out of some 420,000 compounds screened, about 64,000 (15%) were called active. Inconclusive results, whose numbers are uncertain, are shown with a selection of clear calls. The call rests on the fitted dose curve; in most records, active means well fitted inhibition curve with a large enough effect; inconclusive means small, poorly fitted or top-dose-only effect; inactive means flat fitted curve, though single readings scatter. No potency is given beside an inconclusive call; the fits are too rough. A structure can be active in one record and inactive in another.

test: qHTS for Inhibitors of human tyrosyl-DNA phosphodiesterase 1 (TDP1): qHTS in cells in absence of CPT; conditions: DT40 Tdp1-/- hTDP1 cells, no CPT, ATP luminescence, 48 h; activity change, negative = growth inhibition: at 46.2 µM (top of the series) unless noted; further: nearly all actives have a fitted effect of over 55% in size
Procedure, shortened: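 Cells were dispensed at 400 per well, compounds added by pin tool, plates incubated ≥48 hr at 37 °C, then CellTiter-Glo added for 30 min at room temperature before luminescence reading. Line: DT40 Tdp1-/- complemented with hTDP1; camptothecin omitted.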
On the % scale 0 is the no-effect control and ±100 the full control effect; potency means the concentration at half of the fitted maximal effect; tags describe the fitted curve by direction and shape.

Question: Which Potency does the source give for `COc1ccccc1C(=O)NNC(=S)NC(=O)c1sc2ccccc2c1Cl` here?
Answer: active: 8.2 µM

Question: For `COc1cc(Cl)c(C)cc1NC(=O)COc1ccc(C)nc1[N+](=O)[O-]`, which Potency is on record?
Answer: inconclusive [inhibitor, single point]

Question: For `OCC[C@@H]1C[C@@H](O)[C@H](O)[C@@]2(Cc3ccccc3O2)O1`, which Potency is on record?
Answer: inactive

Question: Which Potency does the source give for `Brc1ccc(-c2nnc(-c3ccccc3)c(N3CCSCC3)n2)cc1` here?
Answer: active: 25.9 µM

Question: With `CCCc1cc(=O)[nH]c(SCc2nc(-c3ccccc3F)no2)n1` as the compound, how does the Potency read?
Answer: inconclusive [inhibitor, single point]

Question: With `COc1ccc(-n2c(=O)c3c4c(sc3n3c(SC(C)C)nnc23)COC(C(C)C)C4)cc1` (stereo unspecified) as the compound, how does the Potency read?
Answer: inconclusive [inhibitor, single point]

Question: For `Cc1c(NS(=O)(=O)c2cccc(C(=O)NCc3ccccc3Cl)c2)c(=O)n(-c2ccccc2)n1C`, which activity change, negative = growth inhibition is on record?
Answer: inconclusive: -30.8% [inhibitor]

Question: For `Cc1ccccc1-n1c(=O)c2c(n3cnnc13)-c1ccccc1CC21CCCCC1`, which Potency is on record?
Answer: inconclusive [inhibitor, partial curve]

Question: Which Potency does the source give for `CC1CC(C)CN(C(=O)COc2ccc([N+](=O)[O-])cc2Cl)C1` (stereo unspecified) here?
Answer: inconclusive [inhibitor, single point]

Question: For `N/C(=N/O)c1nc(N2CCCC2)nc(N(c2ccccc2)c2ccccc2)n1`, which activity change, negative = growth inhibition is on record?
Answer: inconclusive: -33.2% [inhibitor]

Question: For `COCCCN(Cc1cc(OC)c(OC)c(OC)c1)C(=S)Nc1cccc(SC)c1`, which Potency is on record?
Answer: active: 8.2 µM

Question: For `Cc1ccc(-n2ncc(C(=O)NCCN3CCc4ccccc4C3)c2C2CCNCC2)cc1C`, which Potency is on record?
Answer: active: 20.6 µM

Question: For `CC(Oc1cc2oc(=O)cc(-c3ccccc3)c2cc1Cl)C(=O)NCC1CCC(C(=O)O)CC1` (stereo unspecified), which Potency is on record?
Answer: inconclusive [inhibitor, single point]

Question: With `CCN(CC)CCC=C(c1cccs1)c1cccs1` as the compound, how does the Potency read?
Answer: active: 23.1 µM

Question: Which Potency does the source give for `COc1cc(=O)n2c(c1C(=O)N(C)Cc1nonc1C)CCN(C(=O)c1cccc(C)c1C)CC2` here?
Answer: inactive

Question: Which Potency does the source give for `COc1ccc(NC(=O)c2cc(=O)c3ccc(C)c(C)c3o2)cc1Cl` here?
Answer: inconclusive [inhibitor, full curve]

Question: For `CC(=O)N/N=C\c1cccc(OC/C=C/c2ccccc2)c1`, which Potency is on record?
Answer: inactive

Question: With `O=C(Nc1ccccc1)c1cc2ccccc2s1` as the compound, how does the Potency read?
Answer: inactive

Question: With `CC(=O)c1cccc(Nc2ccc3cc(S(=O)(=O)N4CCCC4)ccc3n2)c1` as the compound, how does the Potency read?
Answer: inconclusive [inhibitor, single point]

Question: Which Potency does the source give for `O=C(CN1C(=O)COc2ccccc21)N1CCN(c2ccccc2F)CC1` here?
Answer: inactive

Question: With `CCCNC(=O)c1c(N)n(-c2cc(OC)cc(OC)c2)c2nc3ccccc3nc12` as the compound, how does the Potency read?
Answer: inconclusive [inhibitor, single point]

Question: With `COc1ccc(C(CNC(=O)COc2ccccc2C)N2CCCCC2)cc1` (stereo unspecified) as the compound, how does the Potency read?
Answer: active: 16.4 µM

Question: With `Cc1ccc([C@H]2N[C@]3(CCCN(Cc4ccco4)C3=O)[C@H]3C(=O)N(Cc4ccccc4)C(=O)[C@@H]23)cc1` as the compound, how does the Potency read?
Answer: inconclusive [inhibitor, partial curve]

Question: With `Cc1cccc(CNC(=O)c2ccc(NC(=O)N3CCSc4ncccc43)cc2)c1` as the compound, how does the Potency read?
Answer: inactive

Question: With `CN(C)c1ccc(S(=O)(=O)N2CCCCC2)cc1NC(=O)CCNC(=O)c1ccco1` as the compound, how does the Potency read?
Answer: inconclusive [inhibitor, partial curve, poor fit]

Question: With `CCOc1cc(Br)c(COc2ccc(C)nc2[N+](=O)[O-])cc1OCC` as the compound, how does the Potency read?
Answer: inconclusive [inhibitor, partial curve, poor fit]

Question: For `CC1CCCCC1NC(=O)CO/N=C/c1ccccc1OC(F)F` (stereo unspecified), which Potency is on record?
Answer: inactive

Question: With `CC1CCN(S(=O)(=O)c2ccc3c(c2)N(CC(=O)NCCCN2CCCC(C)C2)C(=O)CS3)CC1` (stereo unspecified) as the compound, how does the Potency read?
Answer: inactive and active: 14.6 µM

Question: Which Potency does the source give for `CN(C)S(=O)(=O)c1ccc(NC(=O)CSc2nnnn2C)cc1` here?
Answer: inactive

Question: For `COC(=O)c1cn(C(=O)c2ccc(C)cc2)c2ccccc12`, which Potency is on record?
Answer: active: 16.4 µM

Question: Which Potency does the source give for `COc1cc([N+](=O)[O-])ccc1NC(=O)Cc1ccc(C)cc1` here?
Answer: inconclusive [inhibitor, single point]

Question: With `C=CCn1c(Sc2ncc([N+](=O)[O-])s2)n[nH]c1=O` as the compound, how does the Potency read?
Answer: active: 0.92 µM

Question: Which Potency does the source give for `CC(=O)c1c(C)[nH]c(C(=O)NC2CCSc3ccccc32)c1C` (stereo unspecified) here?
Answer: inconclusive [inhibitor, partial curve]

Question: For `C[C@H](NC(N)=O)C(=O)Nc1ccc(N2CCOCC2)c(S(=O)(=O)Nc2ccc(Cl)cc2)c1`, which Potency is on record?
Answer: inconclusive [inhibitor, single point]

Question: Which Potency does the source give for `CN1C(=O)C2(OCC(COc3ccc(Cl)cc3)O2)c2ccccc21` (stereo unspecified) here?
Answer: inconclusive [inhibitor, single point]

Question: For `Cc1cccn2c(=O)nc(SCC(=O)N3CCC(Cc4ccccc4)CC3)nc12`, which Potency is on record?
Answer: inconclusive [inhibitor, single point]

Question: With `COc1ccc(C(=O)Nc2ccc3oc(Cc4ccc(Cl)cc4)nc3c2)cc1OC` as the compound, how does the Potency read?
Answer: inconclusive [inhibitor, single point]

Question: For `CCN(C(=O)Cc1ccc(Br)cc1)C1CCCCC1`, which Potency is on record?
Answer: inconclusive [inhibitor, single point]

Question: For `Cc1cccc(C)c1-n1c(SCC(=O)N2CC(=O)Nc3ccccc32)nc2ccccc2c1=O`, which Potency is on record?
Answer: inconclusive [inhibitor, single point]

Question: For `CCOC(=O)c1c(C)[nH]c(C)c1S(=O)(=O)N(C)CC(=O)Nc1ccccc1`, which Potency is on record?
Answer: inactive

Question: For `COc1ccc(C(=O)OCC(=O)c2ccc(C3CCCCC3)cc2)cc1`, which Potency is on record?
Answer: active: 20 µM

Question: For `CC(=O)c1ccc(N(CC(=O)NC2CCCCC2)C(=O)c2csnn2)cc1`, which Potency is on record?
Answer: inconclusive [inhibitor, single point]

Question: Which Potency does the source give for `Cc1ccc(/C(N)=N/OC(=O)/C=C/c2ccccc2)cc1` here?
Answer: inactive

Question: For `COc1ccc(C(C(=O)NC(C)C)N(C(=O)CCC(=O)Nc2nccs2)c2ccccc2F)cc1` (stereo unspecified), which Potency is on record?
Answer: inconclusive [inhibitor, single point]

Question: Which Potency does the source give for `CCCNC(=O)C1(C)CCN(C(=O)c2ccc3c(c2)CCO3)C1` (stereo unspecified) here?
Answer: inactive

Question: Which Potency does the source give for `COC(=O)c1ccc2c(=O)n(CC3CCCO3)c(SCC(=O)Nc3ccccc3Cl)nc2c1` (stereo unspecified) here?
Answer: inconclusive [inhibitor, single point]

Question: For `Cc1nn(C)c2ncc(C(=O)c3cc(F)ccc3O)cc12`, which Potency is on record?
Answer: inconclusive [inhibitor, partial curve]

Question: With `O=C1NCCN1CCNc1nc(NCc2ccccc2)nc2ccsc12` as the compound, how does the Potency read?
Answer: inconclusive [inhibitor, partial curve]

Question: Which Potency does the source give for `COc1ccc(C(=O)Nc2nc(CC(=O)NCCc3cccc(OC)c3)cs2)cc1` here?
Answer: active: 14.6 µM

Question: Which Potency does the source give for `Cc1ccc2c(c1)-c1ncc(C(=O)c3cc(Br)ccc3O)cc1CO2` here?
Answer: inconclusive [inhibitor, single point]

Question: With `CC(C)CN(CC(C)C)CC(O)CN(c1ccccc1)S(=O)(=O)c1ccccc1[N+](=O)[O-]` (stereo unspecified) as the compound, how does the Potency read?
Answer: active: 23.1 µM

Question: For `NC(=O)c1nsc(C(=O)N(Cc2ccccc2F)C(C(=O)NCC2CCCO2)c2ccc(F)cc2)c1N` (stereo unspecified), which Potency is on record?
Answer: inconclusive [inhibitor, single point]

Question: Which Potency does the source give for `COc1cc(/C=N/NC(=O)NC2CCCCC2)ccc1O` here?
Answer: inactive

Question: For `Cc1ccccc1NS(=O)(=O)c1ccc2c3c(cccc13)C(=O)N2C`, which Potency is on record?
Answer: inconclusive [inhibitor, single point]

Question: Which Potency does the source give for `NC(=O)[C@H]1CC2(CC(c3cccc(NC(=O)[C@H]4CCC(=O)N4)c3)=NO2)CN1C(=O)c1ccccc1C(=O)c1ccccc1` (stereo partly specified) here?
Answer: inactive

Question: Which Potency does the source give for `Cc1cc(Nc2ccccc2O)c2ccccc2n1` here?
Answer: inconclusive [inhibitor, single point]

Question: With `Cc1cccc(NC(=O)c2oc3ccc(S(=O)(=O)N4CCC5(CC4)OCCO5)cc3c2C)c1C` as the compound, how does the Potency read?
Answer: active: 18.4 µM

Question: For `O=C1c2cccc3cccc(c23)C(=O)N1CCCn1ccnc1`, which Potency is on record?
Answer: inconclusive [inhibitor, single point]

Question: With `CC(CNC(=O)c1ccc(-c2ccccc2)cc1)CN(C)C` (stereo unspecified) as the compound, how does the Potency read?
Answer: inactive

Question: Which Potency does the source give for `CCN(c1ccccc1)S(=O)(=O)c1cc2c(cc1C)n(C)c(=O)c(=O)n2C` here?
Answer: inactive

Question: Which Potency does the source give for `Cn1c(COc2ccccc2)nnc1SCCC(=O)Nc1ccccc1` here?
Answer: inconclusive [inhibitor, partial curve]

Question: With `CC(=O)CSc1nc2c(c(=O)[nH]c(=O)n2C)n1CCCc1ccccc1` as the compound, how does the Potency read?
Answer: inconclusive [inhibitor, single point]

Question: With `Cc1cnc(CNc2ncnc3ccc(-c4ccccc4CN(C)C)cc23)cn1` as the compound, how does the Potency read?
Answer: inconclusive [inhibitor, partial curve]

Question: For `COc1ccc(-n2c(SCC(=O)Nc3ccccc3)nc(O)cc2=O)cc1`, which Potency is on record?
Answer: inactive

Question: For `COc1ccc(C(=O)Nc2ccc3c(c2)nc(CCNC(=O)c2ccco2)n3C)cc1`, which Potency is on record?
Answer: inconclusive [inhibitor, single point]

Question: For `Cc1nn(C(=O)c2cccc([N+](=O)[O-])c2)c(C)c1Cl`, which Potency is on record?
Answer: inactive

Question: With `CCC1NC(=O)c2cccnc2-n2c1nc1ccc(F)cc1c2=O` (stereo unspecified) as the compound, how does the Potency read?
Answer: inactive

Question: With `Nc1nc2c(nc(N3CCOCC3)n2COCCO)c(=O)[nH]1` as the compound, how does the Potency read?
Answer: inconclusive [inhibitor, single point]

Question: For `CC(C)CNc1ncnc2c1ncn2[C@H]1CN(Cc2ccc(Cl)cc2)C[C@@H](CO)O1`, which Potency is on record?
Answer: inconclusive [inhibitor, single point]

Question: Which Potency does the source give for `c1ccc(Cc2nnc3sc(-c4ccncc4)nn23)cc1` here?
Answer: inconclusive [inhibitor, partial curve]

Question: Which Potency does the source give for `COc1cc2c(cc1C(F)(F)F)N(C(=O)Nc1cc(F)cc(-c3cccnc3)c1)CC2` here?
Answer: active: 4.22 µM and active: 3.55 µM
